These results are taken from ChEMBL document CHEMBL3822426, “A cascade screening approach for the identification of Bcr-Abl myristate pocket binders active against wild type and T315I mutant” (Bioorg Med Chem Lett, 2016).

Broadly, the Km is the substrate concentration at which the rate is half of its maximum.

Substrate in series [1]: C(=C/n1ncc2c(NC3CCCCC3)ncnc21)\c1ccccc1
Conditions: Homo sapiens; 25 uM.

Substrate in series [2]: C(=C/n1ncc2c(NC3CCCCC3)ncnc21)\c1ccccc1
The settings on record: Homo sapiens; 50 uM.

Substrate in series [3]: C(=C/n1ncc2c(NC3CCCCC3)ncnc21)\c1ccccc1
The settings on record: Homo sapiens; 100 uM.

B1: Tyrosine-protein kinase ABL1 (Homo sapiens) (protein)
chain: MLEICLKLVGCKSKKGLSSSSSCYLEEALQRPVASDFEPQGLSEAARWNSKENLLAGPSE[letters of about 60 residues not shown]LEKHSWYHGPVSRNAAEYLLSSGINGSFLVRESESSPGQRSISLRYEGRVYHYRINTASDGKLYVSSESRFNTLAELVHHHSTVADGLITTLHYPAPKRNKPTVYGVSPNYDKWEMERTDITMKHKLGGGQYGEVYEGVWKKYSLTVAVKTLKEDTMEVEEFLKEAAVMKEIKHPNLVQLLGVCTREPPFYIITEFMTYGNLLDYLRECNRQEVNAVVLLYMATQISSAMEYLEKKNFIHRDLAARNCLVGENHLVKVADFGLSRLMTGDTYTAHAGAKFPIKWTAPESLAYNKFSIKSDVWAFGVLLWEIATYGMSPYPGIDLSQVYELLEKDYRMERPEGCPEKVYELMRACWQWNPSDRPSFAEIHQAFETMFQESSISDEVEKELGKQGVRGAVSTLLQAPELPTKTRTSRRAAEHRDTTDVPEMPHSKGQGESDPLDHEPAVSPLLPRKERGPPEGGLNEDERLLPKDKKTNLFSALIKKKKKTAPTPPKRSSSFREMDGQPERRGAGEEEGRDISNGALAFTPLDTADPAKSPKPSNGAGVPNGALRESGGSGFRSPHLWKKSSTLTSSRLATGEEEGGGSSSKRFLRSCSASCVPHGAKDTEWRSVTLPRDLQSTGRQFDSSTFGGHKSEKPALPRKRAGENRSDQVTRGTVTPPPRLVKKNEEAADEVFKDIMESSPGSSPPNLTPKPLRRQVTVAPASGLPHKEEAGKGSALGTPAAAEPVTPTSKAGSGAPGGTSKGPAEESRVRRHKHSSESPGRDKGKLSRLKPAPPPPPAASAGKAGGKPSQSPSQEAAGEAVLGAKTKATSLVDAVNSDAAKPSQPGEGLKKPVLPATPKPQSAKPSGTPISPAPVPSTLPSASSALAGDQPSSTAFIPLISTRVSLRKTRQPPERIASGAITKGVVLDSTEALCLAISRNSEQMASHSAVLEAGKNLYTFCVSYVDSIQQMRNKFAFREAINKLENNLRELQICPATAGSGPAATQDFSKLLSSVKEISDIVQR
For B1, the values for the Km in series [1], in series [2] and in series [3] were 47.5 µM, 49.8 µM and 48.3 µM, respectively.
